Sequences and labels used below:
B1: LINE1-full (parent)
chain: UACGUAGGUGGUUUUCCCCUGAUAGUGCUAAGGGGGCCUGGAAGUUUGGACUGGGCAGAGCUCAACACAGCGUGGCAAAGUGGCUGUGGCUAGACUGCCUCUCUGGAUUCCUCGUCACUCAGCAGGGCAUCUCUGAGAGAAAUGCC

The source gives no read counts; variants with many changes may rest on few reads.

Variants of B1 are the subject of the data set. The data set can be described thus: self-cleavage, relative activity (ratio to wild type); higher = more cleavage; in vitro, sequencing; the parent is a self-cleaving ribozyme.
Turning to A30G G36A U134C, the self-cleavage turned out to be 0.63.

Take A31G A50G A65C U132C G139U: the self-cleavage stood at 0.

For the variant G32A A57G U143C, the self-cleavage stood at 0.77.

For A31U U46C A64U U81C C99U, the self-cleavage is 0.37.

As for G32A U73G U134C, the self-cleavage came out at 0.95.

For G32A G49A A107G A140G A141G, the self-cleavage was 1.31.

Regarding A30G C76A U85C, the self-cleavage came out at 1.14.

With A30G A43G A50G C51U U91A U100A C120U, the self-cleavage was 0.58.

With G32U C63U U81C A117U, the self-cleavage worked out at 0.32.

Consider A31U U45C U134C, for which the self-cleavage was determined as 2.

As for A31G U115A G122A, the self-cleavage was 1.21.

Turning to U29C U47C U112C A141C, the self-cleavage stood at 1.04.

For the variant A30G G33U A64G G74A U87A U96A U104A, the self-cleavage came out at 0.06.

With A30G A57G U62A A121U A136U, the self-cleavage came to 0.08.

As to A31C G55C A57C C71U A117G, the self-cleavage came out at 0.23.

On to A30G A69G U130A, for which the self-cleavage was determined as 1.05.

On to A30G C63U G80U, for which the self-cleavage turned out to be 0.58.

Turning to A30G A43G U130A, the self-cleavage was 1.41.

As to G32A A129U C146U, the self-cleavage was 1.26.

With A31G A42U A59G A79G, the self-cleavage turned out to be 0.39.

For the variant A31G U104A A121G U132C, the self-cleavage is 0.98.

With A31U U102C A140G, the self-cleavage was 1.25.

A31G G55C U62C: the self-cleavage worked out at 0.03.

Consider A30U A77G U85A U91C, for which the self-cleavage was found to be 0.

With G33A U47C U62C, the self-cleavage worked out at 0.

For the variant A31C U46C U132C, the self-cleavage came out at 0.63.

Consider G32U A42G A117U, for which the self-cleavage amounted to 1.45.

With A31G A65G U134C, the self-cleavage was found to be 0.84.

Turning to A31U A43G C90U, the self-cleavage came to 0.03.

On to A31G A50G C99U U108C A136G, for which the self-cleavage turned out to be 0.38.

Take G33A U112C G135U: the self-cleavage worked out at 1.02.

For the variant A31U G58A A77G G97A, the self-cleavage was 0.02.

A30G U52A C76U U102C: the self-cleavage worked out at 1.19.

A30U A78G U143A: the self-cleavage came to 0.8.

For G32C A57G A77U A94G U130C A138G, the self-cleavage is 0.

In the case of U29C U104C U134C, the self-cleavage was 2.9.

In the case of A30G A64G A92G A138G, the self-cleavage came out at 0.

As to A30U U39C A77G U91C A142G, the self-cleavage stood at 1.53.

Turning to A30G A64G U134A, the self-cleavage amounted to 0.3.

In the case of A30U G54A U85G, the self-cleavage was 0.12.

Consider A30G U47C A136U A142G, for which the self-cleavage is 0.74.

As to A30G G34A A50G, the self-cleavage amounted to 0.52.

As to A30G U73C U143A, the self-cleavage is 1.31.

In the case of G32A G40A U73C, the self-cleavage was determined as 1.32.

Take G32C A64G G105A: the self-cleavage worked out at 0.37.

G32A A59G G114A: the self-cleavage was 0.05.

Take A30G A50G G53A U134A A140G: the self-cleavage is 0.

For A30G A67G U112C U115A, the self-cleavage was determined as 0.

For the variant A31U C99U U119C C120U, the self-cleavage came to 1.53.

For the variant A30G A31C U39C A138U A140G, the self-cleavage stood at 0.48.

For the variant A30G U47C A67G, the self-cleavage turned out to be 0.

Turning to A30G A57G U87C A138G, the self-cleavage stood at 0.66.

With G32A U45C A69U, the self-cleavage came to 0.05.

On to G32A A67U U102G C120U A124G A142G, for which the self-cleavage was 0.

G33A A65U U96A A141G: the self-cleavage was found to be 0.03.

With A30U U96C C145G, the self-cleavage is 0.73.

G32U A59G A92G C103A G122A: the self-cleavage came to 0.03.

In the case of A30U A77G A117C, the self-cleavage came to 0.4.

For the variant A30C U96C A107G A140G, the self-cleavage was 0.

With A31U A59G A78G U134C, the self-cleavage came out at 0.2.

As to A30U U85A A136G, the self-cleavage was 0.24.

For A30G U47C A79U A136U, the self-cleavage was found to be 0.29.

For the variant A30G U85C A136G A142G, the self-cleavage was 0.

For the variant A30G U91C A94U C98A G125A A140G, the self-cleavage turned out to be 0.04.

For A31G U45C U52C U73A, the self-cleavage was found to be 1.84.

A30G A121G A136G: the self-cleavage was found to be 1.15.

A30U U115C A124G A136U: the self-cleavage came to 2.

On to A31G G72A U115A A138G, for which the self-cleavage came to 1.05.

For the variant A30G C37U A77U G122A U134C, the self-cleavage was 1.09.

A30G A65G C110A U119G U132A: the self-cleavage is 0.

In the case of A30C G34A U87C, the self-cleavage was found to be 0.18.

Regarding G32A U39C A141G A142G, the self-cleavage worked out at 1.01.

For G32C U81A U115C, the self-cleavage came to 2.03.

In the case of A30U A77U A107G, the self-cleavage is 0.88.

For G33A U134A A141G, the self-cleavage was found to be 0.99.

Take A31U U143A C146A: the self-cleavage stood at 0.99.

With A30U A141G A142G, the self-cleavage turned out to be 0.92.

With A30G U81C A142G, the self-cleavage is 0.92.

With A31U G35A A43G A107G U112A A141G, the self-cleavage is 2.2.

Turning to G32C A94C A129G, the self-cleavage turned out to be 0.

Consider A30G A42G U45A U46C U119C, for which the self-cleavage came to 0.8.

Regarding G32A U85C U112A, the self-cleavage came out at 0.12.

With A31U A57G A67U A77G, the self-cleavage amounted to 0.

Take A30U U39C G86U: the self-cleavage was determined as 0.11.

Turning to A31G A78G A79G, the self-cleavage was 0.26.

Take G32A U87C A138U: the self-cleavage stood at 0.16.

A31G A78G A121G: the self-cleavage turned out to be 0.51.

For A30G U87A U91A, the self-cleavage came to 0.17.

A31G G35A U87C A140U: the self-cleavage amounted to 0.22.

For A31G C37U A79G U91A A136U, the self-cleavage turned out to be 0.49.

With A30G A77G A107G, the self-cleavage amounted to 1.31.

Consider A30G A43U A79G, for which the self-cleavage stood at 1.15.

Take A30G A117U U130A: the self-cleavage was 0.52.

Regarding A30C A67G C103A C110U, the self-cleavage was 0.3.

As for A31U A59U A67G G80A U87C A129G, the self-cleavage was 2.3.

For the variant U29C G105A U119C, the self-cleavage turned out to be 1.79.

As to G33C G86A A136U, the self-cleavage amounted to 0.08.

For A30G U100C A136G U143C, the self-cleavage is 1.84.

U29C G106A U132C: the self-cleavage was found to be 2.08.

With A30U A69U A140U, the self-cleavage stood at 0.04.

A30U A69U A140G: the self-cleavage was 0.05.

Take A30G A77U U108C: the self-cleavage stood at 1.63.

A31G A43G A78G A121U A142G: the self-cleavage worked out at 0.

As for A30G C37G A77G, the self-cleavage is 2.51.

In the case of A30G U46C U112C, the self-cleavage is 0.77.

With A30G U100C A129G A138U, the self-cleavage came out at 2.3.

As for A31G U39A U115C, the self-cleavage came out at 1.1.

As for A30U A77G A140G, the self-cleavage came to 1.51.

For the variant G33A A77U U104C U132A, the self-cleavage was 1.02.

With G33A A42G U62C A69U U108C A121G, the self-cleavage came out at 0.

With A31G A43G A64U A67G, the self-cleavage came to 0.17.

Take U29C U47C A78U: the self-cleavage was found to be 2.81.

In the case of A31G G49A U108C, the self-cleavage amounted to 1.15.

Turning to G33A A64G A129U, the self-cleavage turned out to be 0.14.

On to A30U U45C U81C, for which the self-cleavage was determined as 0.

For G32U A77G A92G A136G, the self-cleavage was 0.3.

As for A30G A64G A78G, the self-cleavage came to 0.

For G33A U85C U108A U112C, the self-cleavage was 0.08.

On to U29C U39A A129G, for which the self-cleavage turned out to be 1.1.

Turning to A30G A67U U134C A138G, the self-cleavage amounted to 0.28.

In the case of A31G A59C A94U, the self-cleavage turned out to be 0.1.

Consider A30G U46C G72U U96A, for which the self-cleavage was 0.1.

With A30G U46G U62C, the self-cleavage was found to be 0.

Regarding A31U A59G U108C, the self-cleavage was 0.

As to U29C U81A A141G, the self-cleavage turned out to be 2.16.

As to A31G A42U U109A U115A A140U, the self-cleavage came out at 1.21.

G32A A42G A65G: the self-cleavage came to 0.07.

For G32U G33A U112C, the self-cleavage was found to be 0.79.

Regarding A30U U104A A140G A142C, the self-cleavage turned out to be 0.69.

For A30G G54A U132C C145A, the self-cleavage is 0.75.

As for A31U U134C A138G, the self-cleavage came out at 2.16.

On to A30G A65U A121C, for which the self-cleavage worked out at 0.49.

Turning to A30U G88A U119C C128U A138G, the self-cleavage is 0.13.

Consider A31U G125U A142G, for which the self-cleavage was 1.05.

For A31C A59U A67G G139U, the self-cleavage was 0.29.

For the variant A30G A94G A117G, the self-cleavage is 1.02.

For A30C G35A A65G U119A G126A, the self-cleavage turned out to be 0.03.

As for U29C U39C U81A U112C C113U, the self-cleavage was found to be 0.86.

Consider A31U A59U A129U, for which the self-cleavage stood at 1.11.

With A30G A78G U81C, the self-cleavage turned out to be 0.

Regarding A30G A79U U81C, the self-cleavage amounted to 1.84.

Regarding A31G G33A A43G A79G, the self-cleavage is 0.31.

As to A30U A57G A141G, the self-cleavage came out at 0.69.

Take G33A U46A A65G: the self-cleavage is 0.07.

On to G32C G34A A43U A57G U108A G122U, for which the self-cleavage turned out to be 1.16.

As for A30G A43G U112C, the self-cleavage came out at 0.73.

As for G33A U87A U134C, the self-cleavage amounted to 0.05.

In the case of A30G G32A A94G, the self-cleavage is 0.57.

For the variant A30G G34A A77G U81C U112A, the self-cleavage came to 0.77.

Regarding A31G U39A G88C, the self-cleavage was 0.23.

A30G U115C U130A: the self-cleavage came to 1.41.

As for G33A U62C A142G, the self-cleavage came to 0.05.

In the case of A30G U96A U115A A124C, the self-cleavage was determined as 0.13.

A30U G49U U62C U87A: the self-cleavage came out at 0.06.

Consider A31U U47C U52C, for which the self-cleavage was 2.22.

Turning to G32A U108A A124G U130C, the self-cleavage amounted to 1.02.

In the case of A30U U39C A136G, the self-cleavage is 1.47.

In the case of A31G G83A U85C C146U, the self-cleavage was found to be 0.13.

Consider A30G U47C A65G U100C G125A, for which the self-cleavage was 0.

U29C U45A A59G A69G: the self-cleavage turned out to be 0.

Regarding G32A U45A U143C, the self-cleavage turned out to be 1.83.

For the variant A31G G35U U100G A142G, the self-cleavage came out at 1.53.

Regarding G33A U45C A65U A136G, the self-cleavage is 0.32.

For the variant A31G U46C A117G, the self-cleavage was found to be 0.92.

Take A31G A43G U46C: the self-cleavage was determined as 0.66.

As to A31U A124G U143C, the self-cleavage came to 0.33.

Take G32A G40U A50G: the self-cleavage is 1.03.

Source of the values: the RNAGym collection of RNA variant scans (doi:10.7554/elife.90254).
